# Reference: PubChem BioAssay AID1468 (National Center for Advancing Translational Sciences (NCATS), 2008)
# Among all 280,000 compounds or so, about 1,100 (0.39%) were called active. This list was built around the results that the source calls inconclusive (neither active nor inactive); the mix of calls is not that of the screen. Calls come from the whole dose curve; as a rule, active = well fitted inhibition curve with a large enough effect; inconclusive = small, poorly fitted or top-dose-only effect, or effect the other way; inactive = flat fitted curve, though single readings scatter. No potency is given beside an inconclusive call; the fits are too rough.
# Target: Microtubule-associated protein tau (Homo sapiens) (UniProt P10636)
# UniProt P10636, sequence (P10636 whole entry, looked up): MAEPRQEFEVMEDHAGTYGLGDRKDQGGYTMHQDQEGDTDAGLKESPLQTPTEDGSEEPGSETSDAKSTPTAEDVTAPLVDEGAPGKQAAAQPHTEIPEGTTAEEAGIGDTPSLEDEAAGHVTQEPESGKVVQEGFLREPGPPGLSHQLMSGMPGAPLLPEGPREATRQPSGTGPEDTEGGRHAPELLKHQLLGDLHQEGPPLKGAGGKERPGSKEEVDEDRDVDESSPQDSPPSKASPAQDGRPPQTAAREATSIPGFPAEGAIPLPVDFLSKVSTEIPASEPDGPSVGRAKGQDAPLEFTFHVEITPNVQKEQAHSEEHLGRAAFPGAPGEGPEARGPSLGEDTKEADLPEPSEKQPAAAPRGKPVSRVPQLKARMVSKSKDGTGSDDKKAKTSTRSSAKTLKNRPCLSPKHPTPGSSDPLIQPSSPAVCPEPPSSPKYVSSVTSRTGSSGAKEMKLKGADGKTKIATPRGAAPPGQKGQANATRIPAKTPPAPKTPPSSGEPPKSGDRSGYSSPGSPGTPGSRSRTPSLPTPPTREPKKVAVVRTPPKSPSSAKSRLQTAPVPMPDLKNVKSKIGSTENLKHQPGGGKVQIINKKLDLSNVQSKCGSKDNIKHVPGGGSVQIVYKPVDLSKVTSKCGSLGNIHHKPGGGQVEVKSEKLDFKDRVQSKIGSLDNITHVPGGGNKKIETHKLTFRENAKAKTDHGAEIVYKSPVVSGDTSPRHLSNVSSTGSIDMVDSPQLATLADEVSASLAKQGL
# Assay: qHTS for Inhibitors of Tau Fibril Formation, Fluorescence Polarization; note: nearly all actives have a fitted effect of over 55% in size
# Settings: K18 P301L tau heparin fibrillization, Alexa594 FP, 6 h; series mostly up to 57.7 µM; activity, negative = inhibition: at the top concentration
# In short: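 K18 P301L tau (15 uM unlabeled/0.24 uM Alexa 594-labeled, final) + compound + heparin 20 uM final; 100 mM NaOAc pH 7; 6 hr 37 C; ThT 30 uM final added, 1 hr RT; FP ex 555/em 632 nm.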
# % is set by controls: 0 for no effect and ±100 for the full control effect; potency is the fitted concentration of half-maximal effect; tags give direction and shape of the fitted curve.
Structure (SMILES),Potency,"activity, negative = inhibition"
CN=C(Nc1cccc(Cl)c1)SC1CC(=O)N(c2ccc(OC)cc2)C1=O (stereo not given),"inconclusive [inhibitor, partial curve]",
O=C(/C=C/c1cccc([N+](=O)[O-])c1)NCCSCc1cccc(Cl)c1,"inconclusive [activator, single point]",
C/C(=N/NC(=O)c1ccc(C)s1)c1cccc(NC(=O)COc2ccc(Cl)cc2Cl)c1,"inconclusive [inhibitor, partial curve]",
CCOC(=O)C(C)Sc1ncnc2c1c(-c1ccccc1)cn2-c1ccc(OC)cc1 (stereo not given),"inconclusive [inhibitor, single point]",
CCOC(=O)C1=C(CN2CCC(C(=O)OCC)CC2)NC(=O)NC1c1ccc(Cl)cc1 (stereo not given),,inactive: -10.8%
Cc1ccc(NCc2nnc3n2CCCCC3)cc1Cl,,inactive: 1.1%
CCOCCN1CCN(c2c(CC)c(C)nc3cc(-c4cc(OC)cc(OC)c4)nn23)CC1,,inactive: -3.62%
CC1=CC(C)(C)N(C(=O)CSc2nnc(N)s2)c2cc(C)c(C)cc21,,inactive: 8.38%
COc1cccc(NC(=O)c2cn(C3CCCCC3)c(=O)c3c2c2ccccc2n3C)c1,,inactive: -6.7%
COc1ccc(C(=O)NC2CCCCCC2)cc1S(=O)(=O)Nc1ccc(Br)cc1,"inconclusive [inhibitor, single point]",
CCCc1nnc(SCC(=O)N2C(C)CCCC2C)n1CC1CCCO1 (stereo not given),"inconclusive [inhibitor, single point]",
O=S(=O)(Nc1ccc(-c2ccc(N3CCCC3)nn2)cc1)c1ccc(Br)cc1,"inconclusive [inhibitor, single point]",
Cc1cc(N2CCC(C)CC2)nc2ccc(NC(=O)CCC(=O)N3CCN(c4cccc(C(F)(F)F)c4)CC3)cc12,"inconclusive [activator, full curve]",
O=[N+]([O-])c1cc2c(cc1/C=N/NS(=O)(=O)c1ccc(Br)cc1)OCO2,"inconclusive [inhibitor, single point]",
Cc1ccc(NC(=O)c2cc3c(=O)[nH]c4ccccc4c3n2C)cc1F,"inconclusive [inhibitor, single point]",
O=C1/C(=C/c2cccnc2)SC(=S)N1C1CCS(=O)(=O)C1 (stereo not given),,inactive: 0.888%
Cc1ccc(Nc2nc(COC(=O)C3CC3)cs2)cc1,"inconclusive [activator, single point]",
S=c1nc2ccccc2c2nc(-c3ccccc3)[nH]n12,,inactive: 1.13%
Nc1ccc(C(=O)Nc2ccc(OC(F)(F)C(F)F)c(NC(=O)c3ccc(N)cc3)c2)cc1,"inconclusive [activator, partial curve, poor fit]",
CCOC(=O)C1=C(C)NC(=S)NC1c1ccc(-c2cccc(Cl)c2C)o1 (stereo not given),"inconclusive [inhibitor, single point]",
C=C(C)COc1ccc(-c2[nH]ncc2Oc2ccc(OC)cc2)c(O)c1,"inconclusive [inhibitor, single point]",
C/C(=N\NS(=O)(=O)c1ccccc1)c1cccc(NC(=O)c2cccc(Cl)c2)c1,"inconclusive [inhibitor, single point]",

Structure (SMILES),Potency,"activity, negative = inhibition"
C=CCOc1ccc(C(=O)NC2CCCCC2)cc1,"inconclusive [activator, partial curve]",
Cc1ccc(NS(=O)(=O)c2ccc(Cl)c(NC(=S)NC(=O)C3CCCCC3)c2)cc1Cl,"inconclusive [inhibitor, partial curve]",
Cc1ccc(CNC(=O)C2CCN(S(=O)(=O)c3cccs3)CC2)o1,"inconclusive [inhibitor, single point]",
Cc1ccc(S(=O)(=O)NC2=NCN(CCOC(=O)c3ccc([N+](=O)[O-])cc3)CN2)cc1,"inconclusive [activator, single point]",
Cc1ccc2nc(-c3cccc(N)c3)[nH]c2c1,"inconclusive [activator, single point]",
COc1ccc(OC)c(CNC(=O)c2ccc(NC(=O)c3nsc4ccccc34)cc2)c1,"inconclusive [inhibitor, partial curve]",
CCOC(=O)CN1C(=O)C(CC)Oc2ccc(Cl)cc21 (stereo not given),"inconclusive [inhibitor, single point]",
O=C(Nc1nc(-c2ccc3ccccc3c2)cs1)c1ccc(N2C(=O)CCC2=O)cc1,"inconclusive [inhibitor, partial curve]",
O=C(CSc1nnnn1-c1ccccc1F)Nc1nc2ccccc2s1,"inconclusive [inhibitor, partial curve, poor fit]",
COc1ccc2c(c1)CCc1c(C(=O)NCc3ccc(Cl)cc3)noc1-2,"inconclusive [inhibitor, full curve, poor fit]",
CCCCn1c(=N)n(CC(=O)c2ccc(Br)s2)c2ccccc21,"inconclusive [activator, single point]",
Cc1onc(-c2ccccc2)c1-c1csc(N/N=C/c2ccccc2)n1,"inconclusive [activator, full curve, poor fit]",
Cc1ccc2nc(-c3cccc(NC(=O)c4ccc5c(c4)OCCO5)c3)oc2c1,"inconclusive [inhibitor, full curve]",
Cc1ccc(-n2c(=O)c3c4c(sc3n(CC(=O)Nc3cccc(Cl)c3)c2=O)CCCCC4)cc1C,"inconclusive [inhibitor, partial curve]",
CCOC(=O)C1=C(C)N(c2ccc(OC)cc2)C(=O)/C1=C\c1ccc(O)c(OCC)c1,"inconclusive [inhibitor, single point]",
O=C(O[C@@H]1Cc2c(O)cc(O)cc2OC1c1ccc(O)c(O)c1)c1cc(O)c(O)c(O)c1 (stereo not given in full),"inconclusive [inhibitor, partial curve]",
O=C(Nc1cc(C(F)(F)F)ccc1-n1cncn1)c1ccc(-c2ccccc2)cc1,"inconclusive [inhibitor, partial curve]",
Cc1ccc(C(=O)NCC(=O)NCC(=O)OCC(=O)c2ccc([N+](=O)[O-])cc2)cc1,"inconclusive [inhibitor, single point]",
Cc1ccc(S(=O)(=O)N2CCCC2C(=O)OCc2ccco2)cc1 (stereo not given),"inconclusive [inhibitor, partial curve]",
CC(=O)NC(=S)Nc1sc2c(c1C#N)CCCCC2,"inconclusive [inhibitor, partial curve]",
CCc1ccc(-n2c(=O)c3sc4ccccc4c3n(CC(=O)NCc3ccccc3)c2=O)cc1,"inconclusive [inhibitor, partial curve]",
Cc1ccc(C2(C)NC(=O)N(CC(=O)NC(=O)NC3CCCC3)C2=O)cc1 (stereo not given),,inactive: 4.88%

Structure (SMILES),Potency,"activity, negative = inhibition"
COc1ccc(OC)c(-n2c(N)c(C(=O)NCC3CCCO3)c3nc4ccccc4nc32)c1 (stereo not given),,inactive: 3.55%
O=C(O)c1cnc2[nH]c3ccccc3n2c1=O,,inactive: 2.21%
Cc1ccc(NC(=O)Nc2cn(CC(C)C)c(=O)c3ccccc23)cc1N(C)C,"inconclusive [activator, full curve, poor fit]",
CCOC(=O)c1cc(S(=O)(=O)N2CCN(c3cccc(C)c3C)CC2)[nH]n1,,inactive: -4.99%
CCCS(=O)(=O)c1ncc(Cl)c(C(=O)Nc2c(C(=O)Nc3ccccc3)oc3ccccc23)n1,,inactive: -7.85%
COC(=O)c1cccc(NC(=O)Nc2ccc(Cl)c(Cl)c2)c1,active: 12.6 µM,
O=C(NCCc1csc(-c2cccnc2)n1)c1ccc(Br)o1,,inactive: 2.27%
CCC(C)(C)C1CCC(=NNS(=O)(=O)c2ccc(C)c([N+](=O)[O-])c2)CC1 (stereo not given),,inactive: 0.634%
COc1ccc(NS(=O)(=O)c2cc(S(C)(=O)=O)ccc2C)cc1,,inactive: -3.51%
COc1ccc(S(=O)(=O)Nc2ccc3ccccc3c2)cc1C,"inconclusive [inhibitor, partial curve]",
Cc1ccc(NC(=O)Cn2c(=O)n(Cc3ccc(C(=O)NCc4ccc5c(c4)OCO5)cc3)c(=O)c3ccccc32)cc1,active: 31.6 µM,
N#C/C(=C(/O)CSc1nnc(Cc2cccs2)n1C1CCCCC1)c1nc2ccccc2[nH]1,,inactive: 11.8%
Cc1nc2ccc(NC(=O)Cc3ccc(Br)cc3)cc2s1,"inconclusive [inhibitor, single point]",
COC(=O)c1c(-c2ccc(Cl)cc2)noc1N1CCN(c2ccc(F)cc2)CC1,"inconclusive [inhibitor, full curve, poor fit]",
COc1ccc(CNc2ncnc3c2[nH]c2cc(OC)c(OC)cc23)cc1,"inconclusive [activator, full curve]",
COc1ccc(C(=O)NC(=S)Nc2ccccc2N2CCCCC2)cc1[N+](=O)[O-],"inconclusive [inhibitor, single point]",
CCCS(=O)(=O)c1cscc1NC(=O)c1c(-c2c(F)cccc2Cl)noc1C,,inactive: -1.84%
Cc1ccccc1Nc1c(-c2ccc(N3CCOCC3)cc2)nc2cnccn12,"inconclusive [activator, single point]",
O=c1oc(-c2ccccc2[N+](=O)[O-])nc2ccccc12,"inconclusive [activator, single point]",
O=C(Nc1cccc(Oc2ccc3c(c2)C(=O)NC3=O)c1)c1cccs1,"inconclusive [inhibitor, single point]",
CCOC(=O)c1ccc(NC(=O)Nc2ccc(OC)c(OC)c2)cc1,"inconclusive [activator, partial curve]",
